Experimental findings from the supplement of paper PMC5655136 are described below.

Values come from read counts of a selection and are noisy.
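Further: shRNA barcodes quantified by deep sequencing of PCR amplicons from cellular DNA, counts expressed as percent of each subpool, ratio averaged over two biological duplicates.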

In one data set the test system is NB7. Description: fold depletion of shRNA, plasmid library share / infected cells without Dox share (9 days) (ratio); higher = more depleted after infection (more toxic, leaky expression from a Tet-inducible vector; NB7 is a neuroblastoma line without caspase-8). Particulars: shRNA pool: CD95L ORF + CD95L 3'UTR + Venus libraries.
With TAGTGCTTAAAAATCATTGAT, the “fold depletion of shRNA” value was determined as 1.15. GATTCTTTGTTACAGGCACCG: the “fold depletion of shRNA” value stood at 3.86. On the same count and under the same terms, to ACATGAGGAACTCTAAGTATC belongs 0.819; to ACCGGGGTGGTGCCCATCCTG, 1.05; to AGGGGTGTGTGTGTGTGTGTG, 1.02.

For TGACAATCAACTCTAATAGTG, the “fold depletion of shRNA” value was 1.47.

With CACAGGGTTCAAAATGTCTGT, the “fold depletion of shRNA” value was determined as 2.15.

On to GGGCGACACCCTGGTGAACCG, for which the “fold depletion of shRNA” value amounted to 3.56. On the same count and under the same terms, to CTCTCAAGGTGGGCCTTGCTA belongs 1.74. In the case of CTTAGTGCCTGAGAGTATTTA, the “fold depletion of shRNA” value was determined as 1.66.

TGGGGGCAGTGTTCAATCTTA: the “fold depletion of shRNA” value was found to be 1.45. As to TGTATTCAGTGAGGGTCTTCT, the “fold depletion of shRNA” value came out at 1.82. On to CCCATATCCCCAGATCTACTG, for which the “fold depletion of shRNA” value turned out to be 1.13.

CGACTTCAAGGAGGACGGCAA: the “fold depletion of shRNA” value was found to be 1.64. In the case of TCCAGTGCAATTGTAGGGGTG, the “fold depletion of shRNA” value was 1.71.

With AACCACAGCACAGGCCTGTGT, the “fold depletion of shRNA” value was found to be 0.638. For the sequence ACATGGTCCTGCTGGAGTTCG, the “fold depletion of shRNA” value was 1.13.

Regarding AACATAGAACTCTGGGCTGCC, the “fold depletion of shRNA” value was 4.42.

As for GATATTGTGAAGTACATATTA, the “fold depletion of shRNA” value was 0.49. On the same count and under the same terms, the result for CGAGGGCGACACCCTGGTGAA reads 0.734; that for CACTACCACCTCCGCCGCCGC, 8.79. Same read-out and setting: to CGACGGCCCCGTGCTGCTGCC belongs 0.325; to ATACATGGTTGTGACCTGAGG, 1.25. Same read-out and setting: the result for TGTGAAGTACATATTAGGAAA reads 0.553. Regarding CCTTGGTAGGATTGGGCCTGG, the “fold depletion of shRNA” value turned out to be 0.78. Consider GTGTGTGTGTGTGTGTATGAC, for which the “fold depletion of shRNA” value is 11.4. As for CAGTTCTTCCCTGTCCAACCT, the “fold depletion of shRNA” value is 2.11. Consider TTTTAACTCACCTCTCAAGGT, for which the “fold depletion of shRNA” value turned out to be 1.12.

Regarding TGAAGAAGAGAGGGAACCACA, the “fold depletion of shRNA” value came out at 0.908. As to TCTGGAATGGGAAGACACCTA, the “fold depletion of shRNA” value came out at 1.85. With AAGTTCGAGGGCGACACCCTG, the “fold depletion of shRNA” value was determined as 3.16. GAAAACATGTAATAAAAAGTA: the “fold depletion of shRNA” value was found to be 0.801. CGCATCGAGCTGAAGGGCATC: the “fold depletion of shRNA” value worked out at 0.412. Consider TCGGCGACGGCCCCGTGCTGC, for which the “fold depletion of shRNA” value is 0.531. Consider AGTGCTTCGCCCGCTACCCCG, for which the “fold depletion of shRNA” value is 2.09. Turning to AACGTATCTGAGCTCTCTCTG, the “fold depletion of shRNA” value is 2.03. Same read-out and setting: the result for ATGCCCGAAGGCTACGTCCAG reads 1.52; that for ATCAATGAAACTGGGCTGTAC, 4.61; that for ATGTGTATTTCCAGTGCAATT, 1.52. Still for that read-out and setting: to ACCAGCCAGATGCACACAGCA belongs 0.973; to TACGGCCTGCAGTGCTTCGCC, 0.313. For the sequence TCCAAAGTATACTTCCGGGGT, the “fold depletion of shRNA” value was 1.68. As to CCACTACCACCTCCGCCGCCG, the “fold depletion of shRNA” value is 6.39. Regarding GTTGTATTCAGTGAGGGTCTT, the “fold depletion of shRNA” value was determined as 0.625.

As for AGGAACTCTAAGTATCCCCAG, the “fold depletion of shRNA” value amounted to 1.08.

For the sequence AATATGACGGAAGAACATAGA, the “fold depletion of shRNA” value was determined as 2.08. For GCTACTAATGATGTTTTCCTA, the “fold depletion of shRNA” value worked out at 2.47. The same measure, in the same setting: the result for GACAAATGGAGGAATATGACG reads 1.21; that for GTTCTGGTTGCCTTGGTAGGA, 0.854; that for ATCTACTGGGTGGACAGCAGT, 0.794.

Turning to TGACGGAAGAACATAGAACTC, the “fold depletion of shRNA” value came out at 1.06. For GTATCTGAGCTCTCTCTGGTC, the “fold depletion of shRNA” value came out at 2.77.

TGCACTACTGGGCAGATGTGG: the “fold depletion of shRNA” value amounted to 0.899.

Staying with this data set, now noted: shRNA pool: CD95 ORF + CD95 3'UTR + Venus libraries.
Regarding CTGAGTATATGCAATTAGTGT, the “fold depletion of shRNA” value was determined as 0.506.

As for GATTTTTTTGCCCCTTGTGTT, the “fold depletion of shRNA” value stood at 8.64.

As to AATGACAATGTCCAAGACACA, the “fold depletion of shRNA” value came out at 2.36. As for AAACAACAAATTCAGTTCTGA, the “fold depletion of shRNA” value stood at 2.19. For the sequence TGTGACCCTTGCACCAAATGT, the “fold depletion of shRNA” value was found to be 1.72. Regarding AAGTTTCTAAGATTTAAGATT, the “fold depletion of shRNA” value worked out at 1.91. On to ATGAAATCCAAAGCTTGGTCT, for which the “fold depletion of shRNA” value turned out to be 1.74. In the case of ACCGGGGTGGTGCCCATCCTG, the “fold depletion of shRNA” value amounted to 0.553. AAAGCACAGAAAGGAAAACCA: the “fold depletion of shRNA” value stood at 1.39. Take GGAATTGCTCTTGTCATACCC: the “fold depletion of shRNA” value was determined as 0.74. Consider CTTCCAAATGCAGAAGATGTA, for which the “fold depletion of shRNA” value was 1.46. On the same count and under the same terms, to TAGAAGTGGAAATAAACTGCA belongs 1.4. On to GGGCGACACCCTGGTGAACCG, for which the “fold depletion of shRNA” value is 1.37. Regarding AACTACCTACTTCTTTCTCAG, the “fold depletion of shRNA” value worked out at 1.55.
